This passage reports z-score results from PubChem BioAssay AID488969 (Vanderbilt High Throughput Screening Facility, 2010).

Whole data set: some 110,000 compounds, median “z-score” near -0.1, cut for the highest 2% near 2. The list shows a part of the results. Active and inactive are the calls of the source.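 The calls were made as follows: active = z-score in the third read window above 3 or below -3; inactive = the rest.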

The target of the assay is Metabotropic glutamate receptor 8 (Rattus norvegicus) (UniProt P70579). Put plainly: rat mGluR8 modulators via GIRK flux, primary screen, cell-based, thallium flux, HTS (AID 488969). The conditions noted are these: HEK293 rat mGluR8, GIRK (G protein-gated inwardly rectifying potassium channel) thallium flux, FluoZin2; at 10 µM; stronger effect = higher value; submaximal glutamate (EC20) added with thallium.
Sequence of UniProt P70579 (P70579 whole entry, looked up): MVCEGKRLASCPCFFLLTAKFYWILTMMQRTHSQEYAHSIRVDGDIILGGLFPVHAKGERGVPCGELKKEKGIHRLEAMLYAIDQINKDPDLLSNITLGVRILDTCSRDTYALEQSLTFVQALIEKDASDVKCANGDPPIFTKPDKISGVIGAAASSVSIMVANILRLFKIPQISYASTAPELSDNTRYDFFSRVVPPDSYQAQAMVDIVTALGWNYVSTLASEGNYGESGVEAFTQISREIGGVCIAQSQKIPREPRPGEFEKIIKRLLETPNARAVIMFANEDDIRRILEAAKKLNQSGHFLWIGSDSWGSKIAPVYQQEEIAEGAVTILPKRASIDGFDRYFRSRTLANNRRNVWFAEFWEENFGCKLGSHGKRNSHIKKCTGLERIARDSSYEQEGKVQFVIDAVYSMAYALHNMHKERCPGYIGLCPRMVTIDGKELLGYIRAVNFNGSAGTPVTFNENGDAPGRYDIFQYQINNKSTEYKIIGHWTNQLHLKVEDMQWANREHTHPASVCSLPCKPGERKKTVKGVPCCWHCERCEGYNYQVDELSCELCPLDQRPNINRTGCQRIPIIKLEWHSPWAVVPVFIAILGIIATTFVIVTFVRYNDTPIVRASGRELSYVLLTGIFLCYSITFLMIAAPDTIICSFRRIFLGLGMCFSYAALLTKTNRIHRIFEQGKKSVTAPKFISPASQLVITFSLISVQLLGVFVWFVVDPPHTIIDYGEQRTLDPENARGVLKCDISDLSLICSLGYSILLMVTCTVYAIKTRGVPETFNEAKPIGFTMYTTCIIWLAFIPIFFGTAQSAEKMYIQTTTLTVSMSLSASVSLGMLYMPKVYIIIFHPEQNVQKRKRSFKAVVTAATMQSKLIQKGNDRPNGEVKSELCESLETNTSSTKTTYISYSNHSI
As to `CCCn1c2c(c(O)c(C(=O)Nc3ccc(OCC)cc3)c1=O)CCCC2`, the z-score is -1.03. Next, `Cc1ccc2nc(N(CCCN(C)C)C(=O)c3cc4ccccc4oc3=O)sc2c1`: 0.339; `CCOC(=O)c1cnc(SCC(=O)Nc2ccccc2N2CCOCC2)nc1N`: -0.0952. In the case of `Cc1cc(NC(=O)CCCSc2nc(-c3ccco3)cc(C(F)(F)F)n2)no1` it was 0.331. Next, `COc1ccc(S(=O)(=O)N2CCCC2C(=O)Nc2nccs2)cc1` (centres undefined): -0.428; `CC(=O)c1ccc(NC(=O)C(Cc2ccccc2)NC(=O)c2ccco2)cc1` (centres undefined): -0.126; `CCOc1cc(/C=N/O)ccc1OCc1ccc(C)cc1`: 0.0276. For `Clc1ccc(-c2nnc(CCc3ccccc3)o2)c(Cl)c1`, the z-score was -0.318.

Regarding `Cc1ccc(C)n1-n1c(C)nc2scc(-c3ccccc3)c2c1=O`, the z-score was -0.882. In turn, `CCOC(=O)C(C)Sc1nc2c(c(-c3cccs3)c1C#N)CCC2` (centres undefined) showed a z-score of -0.421. On to `CCCCC(O)(CCN1CCOCC1)c1ccc(Cl)cc1` (centres undefined), for which the z-score is -0.334.

For `Cc1ccc(CON=C2CCN(c3ncc(C(F)(F)F)cc3Cl)CC2)cc1`, the z-score is 0.0323. `Brc1ccc(-c2csc(NNC3=NCCCCC3)n2)cc1` registered a z-score of -0.435. In the case of `Cc1ccccc1NC(=S)N(C)C1(c2ccccc2Cl)CCCCC1=O` (centres undefined) it was -0.321. Turning to `COc1ccccc1N1CCN(C(=O)CSc2nc(C)cc(=O)[nH]2)CC1`, the z-score was -0.206. Next, `CCCn1nc(-c2ccccc2)c2nc3ccccc3nc21`: 0.0864.

`Cc1ccc(-c2nc3sc4c(c3c(=O)n2N)CC(C)(C)OC4)cc1` registered a z-score of 0.25.

In turn, `S=c1[nH]nc(-c2ccc3ccccc3n2)n1-c1ccc(Cl)cc1` displayed a z-score of 0.934. In the case of `CCOc1ccccc1NC(=O)COC(=O)CNS(=O)(=O)c1ccc(C)cc1` it was -0.2.

`O=C(NCc1ccncc1)Nc1ccccc1` yielded a z-score of -0.0117.

Consider `Cc1ccc(C)c(OCCn2cc(/C=C(\C#N)C(=O)NCc3cccs3)c3ccccc32)c1`, for which the z-score was -0.0431.

For `CCCCN1C(=O)C(NC(C)=O)c2cc(Br)ccc21` (centres undefined), the z-score stood at 0.326. Next, `CCOC(=O)c1sc(NC(=O)C(CC)Sc2nnc3c4ccccc4n(C(C)C)c3n2)nc1C` (centres undefined): -0.215.

The compound `Nc1c(S(=O)(=O)c2ccccc2)cnc2c(-c3ccc(F)cc3)cnn12` showed a z-score of -0.173. Turning to `CN(C)/C=N/c1cnc(C(=O)c2ccc(Cl)cc2)n1C`, the z-score turned out to be 0.659.

Compound `CCOc1ccc(N(CC(=O)OC)S(=O)(=O)c2c(C)noc2C)cc1` showed a z-score of -0.249.

As for `C=CCn1c(COc2ccc(OC)cc2)nnc1SCn1nnc2ccccc2c1=O`, the z-score was 0.126. For `Cc1cc(C)cc(-n2c(C)cc(/C=N/NC(=O)CN(c3c(C)cccc3C)S(C)(=O)=O)c2C)c1`, the z-score was -0.0981. In the case of `Cc1ccc(S(=O)(=O)N2CCN(S(=O)(=O)N3CCOCC3)CC2)cc1` it was -0.0174; in that of `COCCNC(=S)N/N=C/c1ccc(OCc2ccc(C(=O)OC)cc2)cc1`, -0.179; in that of `CCC1Oc2ccccc2N(CC(=O)Nc2ccc3c(c2)OCCO3)C1=O` (centres undefined), 0.33.

`Cc1ccccc1C(=O)NC(C)C(c1cccs1)N1CCOCC1` (centres undefined) yielded a z-score of 0.427. `CCSc1nnc(-c2cc3c(s2)-c2ccccc2CC3)o1` came in with a z-score of 0.000914. Next, `COc1ccc(C2C(C(=O)N3CCN(c4ccccc4F)CC3)c3ccccc3C(=O)N2C)cc1` (centres undefined): -0.244.

For `CC(=O)c1cc(Cc2csc(C(C)=O)c2)cs1`, the z-score was -0.0432. Compound `Cc1ccc(N2CCN(CCCN3C(=O)C4CCCN4C3=O)CC2)cc1` (centres undefined) had a z-score of -0.337. Next, `CC1CN(c2cc(=O)n(Cc3ccc(F)cc3)c(=O)[nH]2)CC(C)O1` (centres undefined): 0.061; `CCN(CC)C(=O)Cn1cnc([N+](=O)[O-])n1`: 0.255; `Cc1occc1C(=O)Nc1nn[nH]n1`: 0.196. The compound `CN(C)Cc1nc2ccccc2c(=O)n1Cc1nc(-c2cc3ccccc3o2)cs1` gave a z-score of -0.69. `Cc1cc(C(=O)Nc2sc3c(c2C#N)CCCCC3)cs1` returned a z-score of -0.0794. Compound `CC1=C(C(=O)Nc2ccccc2)C2(CCCCC2)C(C#N)=C(SCC(N)=O)N1` yielded a z-score of -0.0722. Turning to `COc1ccc(CCNC(=O)Cc2cccs2)cc1`, the z-score is -0.268. In the case of `CC(=O)N(C)c1ccc(NC(=O)/C=C/c2ccccc2Cl)cc1` it was 0.368; in that of `Cc1ccc(C(=O)NC(=S)Nn2cnnc2)cc1`, -0.262; in that of `CN(C)c1ccc(/C=N/NC(=O)CN(c2cccc(Cl)c2)S(C)(=O)=O)cc1Br`, -0.0306. Next, `Cc1ccc(-n2ccnc2SCC(=O)N(CC(C)C)C2CCS(=O)(=O)C2)c(C)c1` (centres undefined): -1.54.

As for `COc1ccc(-c2cc(C(=O)Nc3sc4c(c3C#N)CCCC4)c3ccccc3n2)cc1OC`, the z-score turned out to be 0.0122. `Cc1cccc2nc(CSc3nnc4ccccn34)cn12`: the z-score worked out at 0.146. Next, `CCOC(=O)/C(C(=O)Nc1ccc(Cl)cc1Cl)=C1/NC(C)(C)Cc2ccccc21`: -0.0362; `Cc1ccc(C)c2c1cc(C)c1nnc(SCC(=O)N3CCCc4ccccc43)n12`: 0.144; `Cc1nn(-c2ccccn2)c2c1C(c1ccccn1)C1=C(CCCC1=O)N2` (centres undefined): -0.189. Next, `COCCOC(=O)c1c(C)oc2ccc(OCC=C(C)C)cc12`: 1.29; `O=C(CN1CCOCC1)Nc1nc(-c2ccc3c(c2)CCN3S(=O)(=O)c2ccccc2)cs1`: 0.727; `CCOCCn1c(N2CCN(c3ccc(OC)cc3)CC2)nc2c1c(=O)n(C)c(=O)n2C`: -0.306.

Consider `Cc1ccc(NC(=O)C(=O)N2CCCC2)cc1Cl`, for which the z-score was -0.336. In the case of `CC(=O)c1cc2c(cc1NC(=O)CSc1nc3ccccc3[nH]1)OCO2` it was 0.371; in that of `CC(C)(CN1CCCCC1)NS(=O)(=O)c1ccc(Cl)cc1`, 0.0698; in that of `CCOC(=O)c1ccc(NC(=O)C2CCCN(S(=O)(=O)c3ccc(F)cc3)C2)cc1` (centres undefined), -0.355. Next, `CCOC(=O)C1C(=O)CC(C)(O)C(C(=O)OCC)C1c1ccc(Br)cc1` (centres undefined): -0.013. In the case of `Cc1ccc(C(=O)OCC(=O)Nc2ccc3c(c2)OCO3)cc1S(=O)(=O)N1CCOCC1`, the z-score was -0.367. Next, `O=C(CCCC(=O)OCC(=O)c1ccc(Cl)cc1Cl)Nc1cc(C(F)(F)F)ccc1Cl`: 0.227; `CCS(=O)(=O)N1CCCC(C(=O)NCc2ccccc2Cl)C1` (centres undefined): 0.358; `O=C(c1cc2sccc2n1Cc1ccc(F)cc1)N1CCCc2ccccc21`: 0.225. In the case of `CC12C(=O)N(n3cnnc3)C(=O)C1C1C=CC2C1` (centres undefined), the z-score was -0.265. In the case of `COC(=O)CN(C#N)c1nc(C)cc(C)n1` it was 0.691. In the case of `Cc1c(C(=O)NCCSCc2ccccc2Cl)cccc1[N+](=O)[O-]` it was -0.314; in that of `CC(=O)NC1=NN(C(C)=O)C(c2ccc(C(C)C)cc2)S1` (centres undefined), -0.374; in that of `O=C(CN(Cc1ccco1)C(=O)CNS(=O)(=O)c1ccccc1)NCc1ccccc1`, -0.989. In the case of `COc1cc(NC(=O)COC(=O)CSc2cc(C)ccc2C)c(C)cc1[N+](=O)[O-]` it was -0.224; in that of `O=C(O)C1C2C=CC(C3CC23)C1C(=O)NCCc1ccccc1` (centres undefined), 0.335; in that of `Cc1ccc(S(=O)(=O)N2CCCCC2)cc1NC(=O)c1ccc2ccccc2n1`, -0.156. Compound `O=C(Nc1cccc(F)c1)C1CC(=O)N(c2ccc(Cl)cc2)C1` (centres undefined) gave a z-score of 0.61.

In the case of `CCCCNC(=O)NNC(=O)c1ccco1`, the z-score is -0.188. `Cn1c(SCC(=O)NCc2ccco2)nnc1-c1ccccc1` returned a z-score of 0.739. In the case of `CCCCN(CCCC)S(=O)(=O)c1ccc(NC(=O)Cc2cccs2)cc1` it was -0.216; in that of `CCOC(=O)C(=O)/C(C#N)=C/Nc1ccc(F)cc1`, 0.16. Take `Cc1ccccc1N1C(=O)C(Cl)=C(N2CCCCCC2)C1=O`: the z-score was -1.3. In the case of `Cc1cccc(N(CC(=O)N/N=C/c2ccc(OCC(=O)NCc3ccco3)cc2)S(C)(=O)=O)c1C` it was -1.22; in that of `Cc1cccc(NC(=O)Cn2c(=O)n(Cc3ccco3)c(=N)c3c4c(sc32)COC(C)(C)C4)c1`, -1.55. Next, `CN(C)/C=C/C(=O)/C=C/c1cn(-c2ncc(C(F)(F)F)cc2Cl)c2ccccc12`: active: 5.57; `COC(=O)Nc1cc(C(F)(F)F)ccc1N1CCN(c2ccccc2)CC1`: 0.369.

`O=c1[nH]c(CN2CCN(c3ccccc3)CC2)nc2scc(-c3ccccc3)c12` gave a z-score of 1.24. As for `c1ccc(CN2CCOCC2)cc1`, the z-score turned out to be 0.378. Next, `Cc1cc(C2C(C#N)=C(N)SC(N)=C2C#N)c(C)s1`: -1.13; `S=C(Nc1ccccc1)Nc1nc2ccccc2n1CCOc1ccc(Br)cc1`: 1.24. In the case of `CCS(=O)(=O)n1nc(-c2ccccc2)nc1SC`, the z-score is -0.173.

Compound `COc1cccc(NC(=S)NNC(=O)C(C)n2nc(C)c([N+](=O)[O-])c2C)c1` (centres undefined) yielded a z-score of -0.128. The compound `Cc1cccc(NC(=O)c2oc3c(c2C)C(=O)CC(C)(C)C3)n1` gave a z-score of -0.491. With `COc1ccc(-c2cn3c(C)c(C(=O)Nc4ccncc4)sc3n2)cc1`, the z-score was 0.443. The compound `Cc1ccc(N2CC(C(=O)NCc3ccc4c(c3)OCO4)CC2=O)cc1C` (centres undefined) showed a z-score of 0.0044. As to `COc1ccc(C(=O)/C=C/c2cccs2)c(OC(=O)c2cccc([N+](=O)[O-])c2)c1`, the z-score was 0.158.

In turn, `Cc1cc(C)nc(SCC(=O)c2ccc3c(c2)OCCO3)n1` displayed a z-score of -0.899.

As for `CCN(CC)C(=O)C(C)N(C#N)c1nc(C)cc(C)n1` (centres undefined), the z-score was -0.341. Next, `COc1ccc(N(CC(=O)O)S(C)(=O)=O)cc1OC`: -0.393; `COc1cccc(/C=C/C(=O)OCC(=O)Nc2ccc(S(=O)(=O)N3CCCC3)cc2)c1`: -0.238. `O=c1c(C=NCCCn2ccnc2)c(-c2ccccc2)[nH]n1-c1nc2ccccc2s1`: the z-score is -1.01. With `COC(=O)c1ccccc1NC(=O)CNc1cc(OC)c(OC)cc1C`, the z-score is -0.212. Next, `CCC(C)NC(=O)c1cc(CC(C)C)on1` (centres undefined): 0.203; `O=C(CN1CCN(S(=O)(=O)c2ccc(Cl)cc2)CC1)NC(=O)NC1CCCCC1`: -0.219. Next, `Cc1sc2ncnc(NCCc3ccc(S(N)(=O)=O)cc3)c2c1C`: 0.0936; `c1ccc(CCN2CCN(c3ncnc4c3cnn4-c3ccccc3)CC2)cc1`: 0.0352; `O=C(Nc1cccc(O)c1)c1cc2nc(-c3ccccc3)cc(-c3ccccc3)n2n1`: -0.00871. Next, `Cc1cn2c(-c3cccnc3)nnc2s1`: 0.919. Regarding `CCCCc1nc2c(=O)[nH]c3ccccc3c2o1`, the z-score is -0.274. Next, `C=CCn1c(-c2ccccc2)nc2nc3ccccc3nc21`: -0.144; `COC(=O)NCCOC(=O)N(O)c1ccc(Br)cc1`: -0.151. In the case of `O=C(CSc1nc2ccccc2o1)NCc1ccco1` it was 0.00156. With `C/C(=N\NC(=O)Cc1ccc(Cl)cc1)c1ccccn1`, the z-score came to 0.312.
